For 40 molecules, cytotoxicity call and growth inhibition call results are on record in the antibiotic and cytotoxicity screens of Wong et al. (2023).

Assay [1] deals with HSkMC (human skeletal muscle cells). In words: cytotoxicity call (relative viability < 0.9). As to conditions: 10 µM.
For assay [2], the system named is HepG2. In words: cytotoxicity call (relative viability < 0.9). As to conditions: 10 µM.
Assay [3] deals with S. aureus RN4220. In words: growth inhibition call (relative growth <= 0.2). As to conditions: 50 µM.

The other results are listed elsewhere or left out.

For the molecule `O=C(C[C@H]1C[C@@H]2c3cc(NC(=O)Nc4ccccc4F)ccc3O[C@@H]2[C@H](CO)O1)NCc1ccc(Oc2ccccc2)cc1`, the cytotoxicity call in assay [1] was “active”. For the same molecule, the cytotoxicity call in assay [2] was “inactive”. The growth inhibition call in assay [3] is “inactive”.

Turning to `Cc1ccc(S(=O)(=O)Nc2ccc3c(c2)C(=O)N([C@@H](C)CO)C[C@@H](C)[C@H](CN(C)C(=O)Nc2cccc4ccccc24)OCCCC[C@@H](C)O3)cc1`, the cytotoxicity call in assay [1] and in assay [2] was “inactive” in each case. Also, the growth inhibition call in assay [3] is “inactive”.

In the case of `Cc1noc(C)c1NC(=O)Nc1ccc2c(c1)CC(=O)N([C@H](C)CO)C[C@H](C)[C@@H](CN(C)C(=O)Nc1ccc(C(F)(F)F)cc1)O2`, the cytotoxicity call in assay [1] and in assay [2] was “inactive” each time. Besides, in assay [3], the growth inhibition call is “inactive”.

On to `COCCNC(=O)c1cn(C)nc1OC`, for which the cytotoxicity call in assay [1] and in assay [2] was “inactive” each time. Also, the growth inhibition call in assay [3] is “inactive”.

With `C[C@H]1CN([C@@H](C)CO)S(=O)(=O)c2ccc(C#Cc3ccncc3)cc2O[C@H]1CN(C)C(=O)c1ccncc1`, in assay [1], the cytotoxicity call was “inactive”. In addition, the cytotoxicity call in assay [2] was “active”. For the same molecule, the growth inhibition call in assay [3] was “inactive”.

Regarding `COC(=O)C[C@H]1CC[C@H]2[C@@H](COc3ccc(NS(=O)(=O)c4ccccc4Cl)cc3C(=O)N2C)O1`, the cytotoxicity call in assay [1] and in assay [2] was “inactive” throughout. The growth inhibition call in assay [3] was “inactive”.

With `C[C@H]1CN([C@@H](C)CO)C(=O)Cc2cc(NC(=O)Cc3cn(C)c4ccccc34)ccc2O[C@@H]1CN(C)CC1CCCCC1`, the cytotoxicity call in assay [1] and in assay [2] was “inactive” in each case. In assay [3], the growth inhibition call was “inactive”.

Take `C[C@H](CO)N1C[C@H](C)[C@@H](CN(C)Cc2ccc(Oc3ccccc3)cc2)Oc2ccc(NC(=O)c3ccncc3)cc2C1=O`: the cytotoxicity call in assay [1] and in assay [2] was “inactive” in each case. Also, in assay [3], the growth inhibition call was “inactive”.

Take `COc1ccc(NC(=O)N(C)C[C@H]2Oc3ccc(NS(=O)(=O)c4c(C)noc4C)cc3CC(=O)N([C@H](C)CO)C[C@H]2C)cc1`: the cytotoxicity call in assay [1] and in assay [2] was “inactive” in each case. The growth inhibition call in assay [3] is “inactive”.

On to `C[C@@H]1CN([C@@H](C)CO)C(=O)CCCn2nncc2CO[C@H]1CN(C)Cc1ccc(C(=O)Nc2ccccc2N)cc1`, for which the cytotoxicity call in assay [1] and in assay [2] was “inactive” each time. For the same molecule, the growth inhibition call in assay [3] was “inactive”.

In the case of `O=C(CCCCCNC(=O)OCCCCO[C@H]1C[C@@H](c2coc3ccccc3c2=O)C=C(C(=O)N2CCOCC2)O1)NO`, the cytotoxicity call in assay [1] and in assay [2] was “inactive” throughout. Also, the growth inhibition call in assay [3] is “inactive”.

On to `C[C@@H]1CCCCO[C@@H](CN(C)C(=O)CCCN(C)C)[C@H](C)CN([C@@H](C)CO)C(=O)c2cc(NC(=O)Nc3cccc4ccccc34)ccc2O1`, for which the cytotoxicity call in assay [1] and in assay [2] was “inactive” each time. In addition, the growth inhibition call in assay [3] was “inactive”.

With `C[C@@H]1CN([C@H](C)CO)C(=O)Cc2cc(NC(=O)Cc3ccccc3)ccc2O[C@H]1CN(C)S(=O)(=O)c1cccs1`, the cytotoxicity call in assay [1] and in assay [2] was “inactive” in each case. For the same molecule, the growth inhibition call in assay [3] was “inactive”.

For the molecule `C[C@@H]1CCCCO[C@@H](CN(C)S(=O)(=O)c2ccccc2)[C@H](C)CN([C@@H](C)CO)C(=O)c2cc(NS(C)(=O)=O)ccc2O1`, the cytotoxicity call in assay [1] and in assay [2] was “inactive” in each case. In assay [3], the growth inhibition call is “inactive”.

Consider `C[C@@H]1CN([C@@H](C)CO)C(=O)c2cc(NC(=O)c3ccccc3)ccc2O[C@@H](C)CCCCO[C@H]1CN(C)S(=O)(=O)c1ccc(F)cc1`, for which the cytotoxicity call in assay [1] and in assay [2] was “inactive” in each case. In addition, the growth inhibition call in assay [3] is “inactive”.

As to `C[C@H](CO)N1C[C@H](C)[C@H](CN(C)Cc2ccc(C(=O)Nc3ccccc3N)cc2)Oc2ccc(NC(=O)Nc3ccc(C(F)(F)F)cc3)cc2CC1=O`, the cytotoxicity call in assay [1] was “inactive”. For the same molecule, the cytotoxicity call in assay [2] is “active”. Also, the growth inhibition call in assay [3] is “inactive”.

`COc1ccc(CN(C)C[C@H]2Oc3ccc(NS(C)(=O)=O)cc3CC(=O)N([C@@H](C)CO)C[C@H]2C)cc1`: the cytotoxicity call in assay [1] and in assay [2] was “inactive” throughout. Also, in assay [3], the growth inhibition call was “inactive”.

For the molecule `C[C@H](CO)N1C[C@H](C)[C@@H](CN(C)S(=O)(=O)c2cccs2)OCCCC[C@H](C)Oc2ccc(NC(=O)c3ccccc3)cc2C1=O`, the cytotoxicity call in assay [1] and in assay [2] was “inactive” in each case. For the same molecule, the growth inhibition call in assay [3] was “inactive”.

As for `CC(C)NC(=O)Nc1ccc2c(c1)C(=O)N([C@@H](C)CO)C[C@@H](C)[C@H](CN(C)Cc1ccc(Oc3ccccc3)cc1)O2`, the cytotoxicity call in assay [1] and in assay [2] was “inactive” throughout. Further, the growth inhibition call in assay [3] was “inactive”.

As to `Cc1ccc(S(=O)(=O)N(C)C[C@H]2Oc3c(NS(=O)(=O)c4cn(C)cn4)cccc3C(=O)N([C@H](C)CO)C[C@@H]2C)cc1`, the cytotoxicity call in assay [1] and in assay [2] was “inactive” throughout. For the same molecule, in assay [3], the growth inhibition call was “inactive”.

For the molecule `C[C@H](CO)N1C[C@H](C)[C@H](CN(C)C(=O)Nc2ccc3c(c2)OCO3)Oc2ccc(NC(=O)Nc3cccc4ccccc34)cc2CC1=O`, the cytotoxicity call in assay [1] and in assay [2] was “inactive” throughout. Also, the growth inhibition call in assay [3] was “inactive”.

`C[C@@H]1CN([C@H](C)CO)C(=O)c2cc(NC(=O)Nc3ccc(F)cc3)ccc2O[C@@H]1CN(C)C(=O)Nc1ccc(C(F)(F)F)cc1`: the cytotoxicity call in assay [1] and in assay [2] was “inactive” throughout. For the same molecule, the growth inhibition call in assay [3] is “inactive”.

As for `Cc1ccc(S(=O)(=O)N(C)C[C@@H]2Oc3c(NC(=O)c4cc(C)nn4C)cccc3C(=O)N([C@@H](C)CO)C[C@@H]2C)cc1`, the cytotoxicity call in assay [1] and in assay [2] was “inactive” in each case. The growth inhibition call in assay [3] was “inactive”.

For `C[C@H]1CCCCO[C@@H](CN(C)C(=O)Nc2ccc(C(F)(F)F)cc2)[C@@H](C)CN([C@@H](C)CO)C(=O)c2cc(NC(=O)Nc3cccc4ccccc34)ccc2O1`, the cytotoxicity call in assay [1] and in assay [2] was “inactive” in each case. In assay [3], the growth inhibition call is “inactive”.

In the case of `O=C(O)c1cc(O)c2c(O)c3c(O[C@H]4O[C@H](CO)[C@@H](O)[C@H](O)[C@H]4O)cccc3c(-c3c4cc(C(=O)O)cc(O)c4c(O)c4c(O[C@H]5O[C@H](CO)[C@@H](O)[C@H](O)[C@H]5O)cccc34)c2c1`, the cytotoxicity call in assay [1] was “inactive”. The cytotoxicity call in assay [2] is “active”. For the same molecule, the growth inhibition call in assay [3] was “inactive”.

In the case of `Cc1noc(C)c1NC(=O)N(C)C[C@@H]1Oc2cc(C#CCN(C)C)ccc2S(=O)(=O)N([C@H](C)CO)C[C@@H]1C`, the cytotoxicity call in assay [1] and in assay [2] was “inactive” each time. The growth inhibition call in assay [3] was “inactive”.

For `COc1ccc(NC(=O)Nc2ccc3c(c2)C(=O)N([C@H](C)CO)C[C@@H](C)[C@@H](CN(C)C(=O)CCC(F)(F)F)OCCCC[C@H](C)O3)cc1`, the cytotoxicity call in assay [1] and in assay [2] was “inactive” throughout. In assay [3], the growth inhibition call is “inactive”.

Take `C=CCC[C@H](Cc1ccc(F)cc1)C(=O)OC[C@@H](Cc1c[nH]c2ccccc12)NC(=O)[C@@H](CC=C)CC(=O)N(CCO)Cc1ccccc1`: the cytotoxicity call in assay [1] is “inactive”. The cytotoxicity call in assay [2] is “active”. Besides, the growth inhibition call in assay [3] was “inactive”.

For the molecule `C[C@H]1CN([C@@H](C)CO)C(=O)c2cccc(NS(=O)(=O)c3ccc(Cl)cc3)c2O[C@H]1CN(C)S(=O)(=O)c1cn(C)cn1`, the cytotoxicity call in assay [1] and in assay [2] was “inactive” throughout. Also, the growth inhibition call in assay [3] was “inactive”.

As to `CN(C)CCCNC(=O)C[C@H]1CC[C@H]2[C@H](COc3ccc(NC(=O)c4cccc(F)c4)cc3C(=O)N2C)O1`, the cytotoxicity call in assay [1] and in assay [2] was “inactive” throughout. Further, the growth inhibition call in assay [3] was “inactive”.

`CCCNC(=O)N1C[C@@H](C)[C@@H](OC)CN(C)C(=O)c2cc(NS(=O)(=O)CC(F)(F)F)ccc2OC[C@@H]1C`: the cytotoxicity call in assay [1] and in assay [2] was “inactive” in each case. Further, the growth inhibition call in assay [3] was “inactive”.

For `CSC(=N)NCCC[C@H](N)C(=O)O`, the cytotoxicity call in assay [1] and in assay [2] was “inactive” in each case. Further, in assay [3], the growth inhibition call was “inactive”.

For `CC(C)NC(=O)Nc1ccc2c(c1)C(=O)N([C@@H](C)CO)C[C@H](C)[C@H](CN(C)S(=O)(=O)c1cn(C)cn1)OCCCC[C@@H](C)O2`, the cytotoxicity call in assay [1] and in assay [2] was “inactive” each time. Moreover, the growth inhibition call in assay [3] is “inactive”.

Turning to `COc1ccc(NC(=O)Nc2ccc3c(c2)C(=O)N([C@H](C)CO)C[C@H](C)[C@H](CN(C)CC2CCCCC2)O3)cc1`, the cytotoxicity call in assay [1] and in assay [2] was “inactive” each time. For the same molecule, the growth inhibition call in assay [3] is “inactive”.

Consider `COCC(=O)N(C)C[C@H]1Oc2cc(C#C[C@@H](C)O)ccc2S(=O)(=O)N([C@H](C)CO)C[C@H]1C`, for which the cytotoxicity call in assay [1] and in assay [2] was “inactive” each time. Besides, the growth inhibition call in assay [3] is “inactive”.

With `CC(C)n1c(-c2ccccc2)cs/c1=N\c1ccccc1`, the cytotoxicity call in assay [1] and in assay [2] was “inactive” each time. Also, in assay [3], the growth inhibition call was “inactive”.

Take `COc1ccc(S(=O)(=O)N(C)C[C@H]2Oc3ccc(NS(=O)(=O)c4ccc(F)cc4)cc3C(=O)N([C@@H](C)CO)C[C@@H]2C)cc1`: the cytotoxicity call in assay [1] and in assay [2] was “inactive” throughout. The growth inhibition call in assay [3] was “inactive”.

On to `COc1ccccc1-c1cnc2c(c1)C(=O)N([C@@H](C)CO)C[C@H](C)[C@H](CN(C)C(=O)c1cccnc1)O2`, for which the cytotoxicity call in assay [1] and in assay [2] was “inactive” throughout. Moreover, in assay [3], the growth inhibition call is “inactive”.

For the molecule `C[C@@H]1CN([C@H](C)CO)C(=O)c2cc(NC(=O)c3ccncc3)ccc2O[C@@H]1CN(C)Cc1ccc2c(c1)OCO2`, the cytotoxicity call in assay [1] and in assay [2] was “inactive” each time. Besides, the growth inhibition call in assay [3] is “inactive”.

Turning to `C[C@@H]1CN([C@H](C)CO)C(=O)Cc2cc(NC(=O)Cn3cnnn3)ccc2O[C@@H]1CN(C)C(=O)Nc1ccc(C(F)(F)F)cc1`, the cytotoxicity call in assay [1] and in assay [2] was “inactive” throughout. The growth inhibition call in assay [3] is “inactive”.
